PMC6212790
Some of the results follow. At the low end of the ranking the order means little.

What follows are sequences tested against T1, GST-Rok-C97-191 (UniProt O34857) (assay: protein binding microarray). Conditions: Rok is a gene silencer of Bacillus subtilis; high values mean tight binding; most listed sequences are background and not binding sites; double strand, one strand shown.
T1 sequence: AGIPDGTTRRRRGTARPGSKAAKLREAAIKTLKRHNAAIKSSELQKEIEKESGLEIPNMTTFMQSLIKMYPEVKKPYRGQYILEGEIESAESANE
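Further: rank score from −0.5 (least bound) to 0.5 (best bound).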

Sequence	binding signal [E-score]
GCGTTTCA	-0.0989
CTTCTTAA	-0.0285
ATGCGAGA	0.00891
GAATCCAC	-0.046
AACTTACT	0.236
AATCTATC	0.421
ACTACTTC	0.226
TACCTAGA	0.145
AGGGATGA	0.0346
ATCGCCCA	0.00559
ACGAGCCA	-0.162
AACGTCAT	-0.044
AAGAGAAC	0.125
GCCCAACA	-0.053
TACCAGAA	0.135
AAGATCCG	-0.129
GGGAGATA	0.0932
CAAATTGC	-0.00386
CAGACTGC	-0.217
AGGATTGC	0.0187
ATATCTTA	0.26
AGATCATG	0.0411
AAGGACAC	-0.233
TTACGGAA	0.14
CTACTACA	0.366

Sequence	binding signal [E-score]
CGCTGCCC	-0.208
GGATTACA	0.142
GAGATAAA	0.0507
CTCGAGCC	-0.244
TACACATA	0.203
ACCCGGAT	-0.0978
CGATGGAC	-0.0374
GGATCAGA	-0.131
AATTGGGT	0.148
GCATATCC	-0.0417
ATGCGCGC	0.0372
ACCCAAGC	-0.11
CACCCAAC	0.035
CCCAATCC	-0.254
CACAACGA	0.0338
AGACAGTC	-0.217
ATTAGGCG	0.0159
ATTAAACC	-0.0504
CAGCTGGC	-0.142
CTACAGTC	0.164
ACTAGCCA	0.0611
CCATGGAG	0.0212
ACGGACCT	-0.317
ATTTAGCA	0.318
AGTTAACT	0.243

Sequence	binding signal [E-score]
ACGTGAAT	0.101
GCGCTCAC	-0.194
CCAGTGAA	-0.048
CCTTTGTA	0.0944
GGTTCGAA	-0.0927
ACCTACAT	0.227
ATGCACGG	0.0745
AGTTACTG	0.25
CGATGCCA	-0.252
ATGGGCGA	-0.197
GCGGCGGA	-0.271
CAGCCCCC	-0.441
CATCTGCG	-0.166
AAGACTCT	-0.119
TTGAGAAA	0.0442
CACGCGGA	-0.00929
CACTCGTA	0.187
CGCCTTCA	-0.0838
CCAGCGGA	-0.168
TATGGCCA	0.0565
CGGGCGCA	-0.153
AAAGGCCA	-0.131
CATTTGTA	0.276
GTTAGAGA	0.00481
ACAACATG	0.0419

Sequence	binding signal [E-score]
ACATGGGC	-0.0477
AAGAAACG	-0.0354
ACTCAAGC	-0.0317
AATAGTGA	0.219
ATGTGCCA	-0.163
AACCCTGT	-0.00908
ACACGGCA	0.0513
ATGTTCCC	0.0954
ATCGGAAC	-0.0269
CCTTACGC	-0.0795
AAAGCCGT	-0.127
CGAAACCA	-0.131
CGCTGAAG	-0.13
GGCGTGTA	0.0251
AAAAATCG	0.0467
CTACTCTA	0.207
CACACATA	0.0617
CACTGAGC	-0.224
CTCGATGA	0.0233
AAAAACCA	0.0856
CAGCCACA	-0.41
ATAGCGGC	0.0742
CTCGCTTA	-0.162
ATAATCTC	0.178
AATCTAGT	0.282

Sequence	binding signal [E-score]
AGGCCCTG	-0.16
AGCTTCGA	-0.141
ACGACCCG	-0.29
CAACGTCC	-0.328
CCTGTGCA	-0.0377
AGGCACCA	-0.152
CTAAGATA	0.213
GTCACCAA	-0.196
AATACCAC	0.241
CGGAAACA	-0.0708
GCACGGGA	-0.193
ATCTACAC	0.273
CGTAAAAC	0.0179
ACGGTCTA	-0.122
AGTAACGC	0.00371
AGGGGTCG	-0.353
GAAGGTTA	0.0547
CAAGCTGA	-0.274
CGCTAGGA	-0.0406
GAGTATCA	-0.0174
ATGCTAGG	0.062
AGTGTTAT	0.19
TCCACAAA	0.00724
GGGGGAGA	-0.156
AGCAAGTC	-0.196

Sequence	binding signal [E-score]
GAGGAGAC	-0.258
ACGTAACC	-0.138
CGAGATCC	0.128
AAGCGTTC	-0.199
CCGGAAAA	0.0361
GGGCTAAC	-0.0664
GCCTTCGA	-0.156
CGACTTGA	0.0696
GAGTGAAC	0.0307
GGCGCGCC	-0.422
AATGATGG	0.013
ATATCCAA	0.249
ACAGAATA	0.156
AGAGTGCG	-0.139
ACTCACCC	-0.179
AAAGTGAC	-0.0335
ATCCGGGA	-0.189
GACTTAAC	0.0428
CTGGGGGC	-0.392
AAGGTGCA	-0.103
ATCGAAGG	-0.186
ACATTTGA	-0.0376
TCTGTGAA	0.0175
AAGTGAAG	-0.0365
GTAGATCA	0.24

Sequence	binding signal [E-score]
AACTACTA	0.465
GGCTACTA	0.0153
AGTACGTA	0.227
AAGTCCCA	-0.172
ACTAGTTA	0.448
CTGCTAAA	-0.0612
AAAGCCCC	-0.326
AGAAACAT	0.154
ACAGTTAG	0.116
GTAAGGAA	-0.0549
GAATGGCA	-0.0487
GAACCGAA	0.00912
AATGGCAT	0.103
GAAACCAC	0.0189
CTAAGGGC	-0.183
CGTTACCC	-0.231
AGCAGATA	0.0118
GAGTGATC	-0.175
TAAGCCCA	-0.182
CATGGTCC	-0.111
GTTCGCGA	-0.163
ACCTCTGC	-0.089
AGCAAACA	-0.103
GCCACCAA	-0.143
ACCGTTCG	-0.153

Sequence	binding signal [E-score]
AAAAGCAA	0.148
GCTCGACC	-0.211
AACTATTA	0.444
ACAGTAGG	0.201
CTGTGCTC	-0.26
TCAACTGA	0.0288
CTAAGTCA	-0.0334
AGGTTCCC	-0.303
CTACGCGA	-0.0284
AGACCAAT	-0.161
ACATCTAA	0.0495
GGGCGAAC	-0.281
ATTTTCGC	-0.00708
GCATAAGC	-0.0858
CGCGCAGA	-0.0439
GACTGAAC	0.0198
AAAGGTAC	0.217
CCGGACCA	-0.196
TCCTACCA	0.273
TACAGTGA	0.0342
GGAATTCA	-0.0845
AGATCAGG	0.0368
CCCTCAGG	-0.376
ATCTCAAG	-0.0379
TCAGTACA	0.0426

Sequence	binding signal [E-score]
GTTCTTGA	-0.071
CCCGGCAG	-0.212
ACCAGCCT	0.043
CCCAAATC	-0.133
AGGCTCAG	-0.277
CAAGGCAG	-0.103
ACTACCGA	0.308
GTTATACA	0.253
CAAATTGA	-0.0429
ATTTTACC	0.322
CGCCGTAG	0.0501
GCTCGTTA	-0.0735
CATCCCGC	-0.0584
AATCACGT	0.0359
AGTTGGAC	-0.194
CCAGTAAG	-0.27
GGTTGCCA	-0.212
GCCGGGTA	-0.0858
CACCTTTC	-0.147
ACAGACAA	-0.0117
GGAAATCA	0.0546
ATATCCCC	-0.0642
GGTAGCTA	0.357
ATTGGGAC	-0.0199
CATTGCTC	-0.106

Sequence	binding signal [E-score]
GAGTCAAA	-0.0333
CGGCAGCA	-0.247
CACGGCAG	-0.237
ACGTCTTA	-0.144
CCTAGTCG	-0.0874
ATACGTCA	0.149
CGCAGTAA	0.0695
ACTTGCAC	0.16
CGTTAGCC	-0.133
CGTAAGTA	0.16
CCAACCGC	-0.309
CTGATCTA	0.106
ATGGTCGC	-0.189
AATGCATT	0.0786
CGATGCTC	-0.168
ATGTTATG	0.14
ATGGGAAT	0.192
CCACAGCA	-0.129
CCCTTCAC	-0.324
GCCCTAAC	-0.16
ACTGCTCG	-0.137
ACGATCCG	0.259
CTCTCCGC	-0.338
CGAAAACA	0.348
AAACGGCC	-0.269

Sequence	binding signal [E-score]
GCATCGTA	-0.0338
CATCCACC	-0.079
AACTGCGG	-0.161
CGTAGATA	0.21
CGGCGGCA	-0.23
AAAGTTGA	-0.0562
ATCGTCCC	-0.222
CCTGCAGA	-0.163
AACCGTAG	-0.0299
CTGCACAC	-0.044
AATTATCA	0.291
CAATTACG	0.131
TCGACACA	-0.089
GCCGCTGA	-0.158
CCATATGA	0.0601
CATGATTA	-0.0351
GCACGTCA	-0.174
TCAGATAA	0.189
CTTCTTAC	0.303
AACACGTC	0.0277
CCCCAGGG	-0.324
AGCTGTGG	-0.332
CGACAAAC	-0.146
AGACTGCG	-0.124
AGTCTAAT	0.0221

Sequence	binding signal [E-score]
CTCAGCAG	-0.206
GTAGATAA	0.397
AGTCATTA	-0.0085
CAGATCAA	-0.145
CACAGGTC	-0.103
AGTGGGAA	-0.112
TGGGACAA	-0.0222
GATGGTAA	0.222
CATATGGC	-0.0405
ATTCCGAA	0.147
GATGTGGC	-0.00607
CGACGCCG	-0.116
CGAGTATA	0.257
CATTCTAA	0.12
GGCGGACC	-0.277
AAGAACGG	-0.121
AAGATGGC	0.0154
AGAGTTAT	0.131
GCCTACCA	-0.0409
AACCTGAA	-0.0375
ACCCAACA	-0.0613
TCGCCCGA	-0.284
CAAGTTAC	0.0977
CGAAAGAA	-0.254
ACAAAAAT	0.00529

Sequence	binding signal [E-score]
TCCCCCAA	-0.237
AGTAGAAT	0.422
ACCCAATG	0.0422
AGATAGTC	0.0233
GGACCGTA	-0.0209
GCTAAGAA	0.0341
ATATGGAT	0.23
AACGGCTG	-0.0851
CCAGGGAC	-0.189
CTGTGGAA	0.041
CCGATAAG	-0.157
AACTTTGA	-0.09
ACTGTAAC	0.226
AAGTTTAT	0.0846
AAGACTCG	-0.148
AGGCAGCA	-0.135
AAGTGTCG	0.0859
CGACGTAG	-0.0973
TACAGCTA	0.191
AGCTATGG	0.141
AACTGTCA	0.000932
CCGTCGTC	-0.112
AACTTTTA	0.194
ATTCTGCG	0.0793
CAGAATGG	-0.212

Sequence	binding signal [E-score]
CATAAGTA	0.185
TCCCTGCA	-0.211
AATTGACG	0.154
ATATGTGG	0.033
CCGTTCTA	0.108
GAGCAAGC	0.0506
GAAGTGCC	-0.0999
AGGTTAAT	0.0701
ACGATTGA	0.0499
CCCCATCC	-0.296
AGAATCCG	0.193
AAGCAGCA	-0.209
CCTAGATC	0.0939
CCACGTGA	-0.129
GTACGACA	-0.00434
CGGCCAAC	-0.237
GGCATCCA	-0.259
CGTCAATC	-0.16
GAGTGGGA	-0.19
